Results from article PMC5892938.
This is one part of the list. The exact form of the protein is not confirmed.

Biological target: GST-SBP-ILF3 (Homo sapiens) (UniProt Q12906)
Experiment: targeted RNA Bind-n-Seq
Conditions: RBNS binding buffer: 25 mM Tris pH 7.5, 150 mM KCl, 3 mM MgCl2, 0.1% Tween, 0.5 mg/mL BSA, 1 mM DTT; 27 nM protein, 750 pM RNA pool; temperature not stated; high values mean tight binding; sequences stand for … in GGGUAAAAGCGAGGUGAA…CGGGACAAGUAUUAUGGG

Sequence	binding signal (log2 fold change)
UUUUUUUUUUGAGAGCGAACCGUUCUCCAG [tttttgagapaired]	0.456
UUUUUUUUUUGAGAUGGAAACCAUCUCCUG [tttttgagapaired]	0.224
UUUUUUUUUUGAGACGGAGGCUGUCUCCUG [tttttgagapaired]	1.11
UUUUUUUUUUGAGAGGGCUACCCUCUCCAG [tttttgagapaired]	0.453
UUUUUUUUUUGAGAUGGUAACUAUCUCCAG [tttttgagapaired]	0.343
GUUGUGUGUGUUGGAGUCUAACACACACAG [gtspaired]	-0.559
UUUUUUUUUUGAGAGCGGGCCGCUCUCCUA [tttttgagapaired]	0.596
UUUUUUUUUUGAGAUGGCAUCCAUCUCCUG [tttttgagapaired]	0.341
UUUUUUUUUUGAGAUGGUAUCCAUCUCCUG [tttttgagapaired]	0.233
UUUUUUUUUUGAGAGCGUAGCGCUCUCCAG [tttttgagapaired]	0.171
UUUUUUUUUUGAGAUGGUAACCAUCUCCUG [tttttgagapaired]	0.388
UUUUUUUUUUGAGAGCGUGUCGUUCUCCAG [tttttgagapaired]	0.549
UUUUUUUUUUGAGAGCGAAUCGUUCUUCUA [tttttgagapaired]	-0.119
UUUUUUUUUUGAGACGGGGGCCGUCUCCAG [tttttgagapaired]	0.776
GUGUGGUGUGUUGGUCCCUAACACACCGCA [gtspaired]	-0.747
UUUUUUUUUUGAGACGGUAGCCGUCUUCUA [tttttgagapaired]	0.603
UUUUUUUUUUGAGACGGUAUCCGUCUUCUG [tttttgagapaired]	0.546
GUGUGUUGUGUUGGCCCCUAACACAACACG [gtspaired]	-0.107
UUUUUUUUUUGAGAGCGUACCGCUCUCCAG [tttttgagapaired]	0.405
UUUUUUUUUUGAGAUGGGGUCCAUCUCCAG [tttttgagapaired]	0.433
UUUUUUUUUUGAGAACGAAUCGUUCUCCGG [tttttgagapaired]	-0.156
GUGUGGUGUGUUGGCGUCUAACACAUCACA [gtspaired]	-0.609
GUGGUGUGUGUUGGUCUCUAACACACAUCA [gtspaired]	-0.561
GGUUGGUGUGUUGGUCCCUAACACAUCAAC [gtspaired]	-0.613
UUUUUUUUUUGAGAUCGAGACGGUCUCCUA [tttttgagapaired]	0.309
UUUUUUUUUUGAGAGGGGACCCCUUUCCGG [tttttgagapaired]	0.365

Sequence	binding signal (log2 fold change)
UUUUUUUUUUGAGACUGAGUCAGUCUUCUG [tttttgagapaired]	0.284
UUUUUUUUUUGAGAGCGUAGCGCUCUUCUG [tttttgagapaired]	0.265
UUUUUUUUUUGAGAGGGCGGCCCUCUCCUG [tttttgagapaired]	1.29
UUUUUUUUUUGAGAGCGAAGCGCUCUCCAG [tttttgagapaired]	0.543
GUGGUUGGUGUUGGUUCCUAACACCAGCCG [gtspaired]	-0.799
UUUUUUUUUUGAGAUGGGUGCUAUCUCCAG [tttttgagapaired]	0.694
UUUUUUUUUUGAGACGGCUGCCGUUUCCUA [tttttgagapaired]	0.619
GUGGUGUGUGUUGGCACCUAACACACGCCA [gtspaired]	-0.532
GUGUGUUGUGUUGGUCUCUAACACAACGCG [gtspaired]	-0.673
UUCUCUCUUCCUCCUGAGGAGGAGGGGAGA [ctspaired]	-0.00227
UUUUUUUUUUGAGACGGAAACCGUCUCCUG [tttttgagapaired]	0.336
UUUUUUUUUUGAGAGCGAUGCGUUCUUCUA [tttttgagapaired]	0.434
UUUUUUUUUUGAGAGGGGAACCCUCUUCUA [tttttgagapaired]	-0.226
UUUUUUUUUUGAGAACGGAGUAAUAAAAAA [ttttgagaunpaired]	-0.21
UUUUUUUUUUGAGACGGAUGCCGUCUCCGG [tttttgagapaired]	0.495
UUUUUUUUUUGAGAUGGUUUCCAUCUCCAG [tttttgagapaired]	0.13
UUUUUUUUUUGAGAUGGUCCCCAUCUCCAG [tttttgagapaired]	0.92
GUGUGGUGUGUUGGCCUCUAACACAUCAUA [gtspaired]	-0.863
UUUUUUUUUUGAGAGCGAGGCGUUCUCCUA [tttttgagapaired]	0.324
UUUUUUUUUUGAGACCGGCACGGUCUUCUA [tttttgagapaired]	0.284
UUUUUUUUUUGAGACUGAAGCAGUUUCCGG [tttttgagapaired]	0.547
GUGGUGUGUGUUGGAAUCUAACACACGCUA [gtspaired]	-0.736
UUUUUUUUUUGAGAUCGUAGCGAUCUUCUA [tttttgagapaired]	0.269
UUUUUUUUUUGAGACGGUGACCGUUUCCUA [tttttgagapaired]	0.532
UUUUUUUUUUGAGACUGGGACAGUUUCCGG [tttttgagapaired]	0.653
UUUUUUUUUUGAGAUCGAGACGAUCUCCUG [tttttgagapaired]	0.292

Sequence	binding signal (log2 fold change)
GGUGUUGGUGUUGGUAUCUAACACCAGCGC [gtspaired]	-0.754
GUGGUUGGUGUUGGACCCUAACACCGACCG [gtspaired]	-0.529
GUGUGGUGUGUUGGAUUCUAACACACUACG [gtspaired]	-0.582
UUCCUCUCUCCUCCUCGGGAGGGGGGAGGA [ctspaired]	-0.447
UUUUUUUUUUGAGACUGUUUCAGUCUCCGG [tttttgagapaired]	0.345
UUUUUUUUUUGAGACUGAAACAGUUUCCUA [tttttgagapaired]	-0.00173
UUUUUUUUUUGAGAGGGGGUCCUUCUCCUA [tttttgagapaired]	0.803
UUUUUUUUUUGAGAGCGAGGCGCUCUCCGG [tttttgagapaired]	0.244
UUUUUUUUUUGAGACCGGGGCGGUUUCCUA [tttttgagapaired]	0.588
GGUUGGUGUGUUGGACCCUAACACAUCGAC [gtspaired]	-0.383
GGUUGUGGUGUUGGCACCUAACACCAUAAC [gtspaired]	-0.46
UUUUUUUUUUGAGACGGACGCCGUCUUCUA [tttttgagapaired]	0.473
UUUUUUUUUUGAGAGCGUAACGUUCUUCUG [tttttgagapaired]	0.584
UUUUUUUUUUGAGAUGGACGCUAUCUCCAG [tttttgagapaired]	0.482
UUUUUUUUUUGAGAUGGGAUCCAUCUCCGG [tttttgagapaired]	-0.0765
GUGUGUUGUGUUGGCUUCUAACACAACGCA [gtspaired]	-0.201
UUUUUUUUUUGAGAUGGAGUCCGUCUCCUG [tttttgagapaired]	0.561
GUUGUGUGUGUUGGAGUCUAACACACACGA [gtspaired]	-0.536
GUGUGGUGUGUUGGCGCCUAACACACCAUA [gtspaired]	-0.283
UUUUUUUUUUGAGAGGGACCCCCUCUCCUA [tttttgagapaired]	0.493
GGUGGUGGUGUUGGCGUCUAACACCGCUAC [gtspaired]	-0.37
UUUUUUUUUUGAGAUCGGGGCGAUCUCCGG [tttttgagapaired]	0.236
UUUUUUUUUUGAGACGGAAACCGUUUUCUA [tttttgagapaired]	0.239
GUUGGUGGUGUUGGACCCUAACACCACCAG [gtspaired]	-0.461
GGUGUGUGUGUUGGUCCCUAACACAUACAC [gtspaired]	-0.628
UUUUUUUUUUGAGACGGCUUCCGUCUCCAG [tttttgagapaired]	0.592

Sequence	binding signal (log2 fold change)
UUUUUUUUUUGAGACUGACACAGUCUUCUA [tttttgagapaired]	-0.129
UUUUUUUUUUGAGAUGGGCUCCAUCUUCUA [tttttgagapaired]	0.378
UUUUUUUUUUGAGAUGGGAGCUAUCUCCUA [tttttgagapaired]	0.349
UUUUUUUUUUGAGACUGAAACAGUUUCCGG [tttttgagapaired]	0.365
UUUUUUUUUUGAGACUGGAACAGUUUUCUA [tttttgagapaired]	0.0124
UUUUUUUUUUGAGAUCGAAACGAUUUCCAG [tttttgagapaired]	0.136
GGUGUUGGUGUUGGCUUCUAACACCGACGC [gtspaired]	-0.39
GUGUGUGGUGUUGGAGUCUAACACCAUACG [gtspaired]	-0.474
UUUUUUUUUUGAGACGGAGGCCGUUUCCAG [tttttgagapaired]	0.687
UUUUUUUUUUGAGAUGGGAACCAUCUUCUA [tttttgagapaired]	0.0161
UUUUUUUUUUGAGAUGGAGGCCAUCUCCGG [tttttgagapaired]	0.373
UUUUUUUUUUGAGACCGUUUCGGUCUCCUG [tttttgagapaired]	0.4
GUGUGUUGUGUUGGCGUCUAACACAGCACG [gtspaired]	-0.721
UUUUUUUUUUGAGAGGGUGCCCCUCUUCUG [tttttgagapaired]	0.409
UUUUUUUUUUGAGAGGGCUUCCCUCUUCUG [tttttgagapaired]	0.496
GUGGUUGGUGUUGGUGCCUAACACCAGCCG [gtspaired]	-0.352
UUCUCUCUUCCUCCAUAGGAGGAGGAGGGA [ctspaired]	-0.374
UUUUUUUUUUGAGAUGGGAGCUAUCUCCGG [tttttgagapaired]	0.426
GUGUGGUGUGUUGGAAUCUAACACAUCGCG [gtspaired]	-0.747
UUUUUUUUUUGAGACUGAAUCAGUCUUCUG [tttttgagapaired]	0.186
GUGUUGUGUGUUGGUGCCUAACACACAGCA [gtspaired]	-0.576
UUUUUUUUUUGAGACUGGGGCAGUUUUCUA [tttttgagapaired]	0.754
GUGGUUGGUGUUGGCCCCUAACACCGACCG [gtspaired]	-0.677
UUUUUUUUUUGAGAUCGUAUCGAUCUCCGG [tttttgagapaired]	0.165
